Measurements published in the RNAGym collection of RNA variant scans (doi:10.1073/pnas.2313332121).
Variants at the floor of the assay are shown more often than the library holds them.

B1: TPR 5TU (parent)
chain: GGAUCUUCUCGAUCUAACAAAAAAGACAAAUCUGCCACAAAGCUUGAGAGCAUCUUCGGAUGCAGAGGCGGCAGCCUUCGGUGGCGCGAUAGCGCCAACGUUCUCAACUAUGACACGCAAAACGCGUGCUCCGUUGAAUGGAGUUUAUCAUG

Variants of: B1
Experiment: polymerase ribozyme fitness, log enrichment relative to wild type (log ratio); higher = more active; in vitro selection for triplet polymerase activity
How it was run: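 Each subunit of a heterodimeric triplet polymerase ribozyme was mutagenized into a library by PCR, transcribed, and subjected to one round of in vitro selection, run in triplicate. Libraries were annealed with a biotinylated primer, the partner subunit and triplets, incubated frozen at −7 °C, and extended constructs were gel-excised, captured on streptavidin beads and recovered by RT-PCR. Input and output libraries were sequenced on Illumina, keeping genotypes with ≥10 input reads and ≥1 read per output. Fitness is log base 2 of genotype enrichment divided by wild-type enrichment, from inverse-variance-weighted replicate averages.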

Polymerase ribozyme fitness (log ratio), -4.12:
A24U C32G U135G G143A

Polymerase ribozyme fitness (log ratio), -4.05:
G25U C69G U146A

Polymerase ribozyme fitness (log ratio), -3.52:
A24G C125G

Polymerase ribozyme fitness (log ratio), -3.85:
A26C A52U A89C

Polymerase ribozyme fitness (log ratio), -2.93:
A26C U82A A137G

Polymerase ribozyme fitness (log ratio), -2.45:
A26C U56A A60U U82G

Polymerase ribozyme fitness (log ratio), -3.8:
A24U U56A U148A

Polymerase ribozyme fitness (log ratio), 0.748:
A24U C96A U145A

Polymerase ribozyme fitness (log ratio), -1.81:
A24U A52G A106G G143A

Polymerase ribozyme fitness (log ratio), -2.85:
G25C G83U

Polymerase ribozyme fitness (log ratio), -1.49:
A26C

Polymerase ribozyme fitness (log ratio), -4.18:
G25C U53A U61A C95G

Polymerase ribozyme fitness (log ratio), -3.42:
G25C A52G G83C

Polymerase ribozyme fitness (log ratio), ≤ -4.2:
A24G A29C A47G C85A C95U U135A A150G
G25U A39U U53A C76G U145A
G25A A29C C57A C75A U77C G80A G92A C93G
G25C A47G G48A U53A C85G C114A
A24G G50A A73G G86A C87G A89U C93G
G25C A49C C51U U53G C54A C116U G141A G152U
A26C C43U C96U A97U G141C
A24U A41C C63A A106U
A24G G34A G58C C87A C99U
G25C A29G A66C A107C
A24C C27G A30G U31A A73C C85G
A24G A26U C57U C85U G86U C118A A142C
A26C U56A G88U A119U A121C A122G G140U
A24U G42A G59A C96G
A24G U31A C51A C54A C85A C99A C118U A121U A137G
G25U U56A G94U C95A G112U A122G C123U
A26G G83A U104G U109G
A26G G42A C99A C114A G136C G143U A147G
A26C C51G C95U
A24C A47U G50A U56A C75U G100C C116A A121U A150G
A24G A41C C51G C75A G94U U127C
G25C G50C U56A U77G G88C C95U
A24G U31A U82C U101G
G25C U55A U61G C69U G88A U145A
A24G C35U A150C
G25U U56C A91C U127A
A24G A64U U90G G94A
A24G U45G C87U
A26C C85G C87G C95G G124U
A26C C51U G67A C93U C105U
G25A C75U C93U C105U U109A
A26C G83U A98U U101G G136U
A26C A49U C51A A52C A73C G88C A91U
A26G A41C C85A C103A
A24U C51U U53G C87A
A24G C75U G84A U102G
A24C C35U A138U
A24U U53A U55A C95U C99A
A26G C36A
A26C G68U C75A C87U A113U A119U G133C U144G U148A
A24G C36A G94U U144G
G25C A52G U56A G58A G68C C96A
A24G G46C G59C A60G C132G
A24C A30C G65C G71A G80C U82A C95U
A24C G48U C96A U127G A147G
A24U C36G U56A C57A G71U A91C A106C A110G A138G
A24G C36A G48A C75G G92U
A24U G59U A91G C96A G117A C118G C132U G136A
A24U A49G A52C U53A U55A C69A
A26C A47C A52C G58C G71A G100C C116A
A26G C35G A52C U53G C57G C95A A115U G143U
A26G A39U C72U C87G C103U
A24U A28C C54U C87U C95G G141C
A26C G86U A110U U145A
A24G A28U G48A U56A G62A G81A U102G U144C
A26G C32A A39C C54A A150G
A26G C35U G86A C118A U130G
A24G A49C U56A G67U C85U G94C A119U
A24G A30G C35G U55G G65C A89U A106C U111G G140A U144A
A24U A29G G68C G86U C105G G128A A137U U151C
G25U U45A
G25C G83C C87G A91G
G25C A52C U56A C85U G124C
A24G G68A A119U C149G A150U
G25C A29G C85G G128C G141C
G25C A73G C87U G88U A110U G152C
A26G C36U C87G C95A G126A
A24C C85A
G25U A39U G50C G86A C93G
A24C C43U G50C A91C C105U C123A
A24U A37C U44G C76G G92C A113G
A24G C35A G58A C93G C99A
A24G G50A U55A G58C C96U A120U
A26C A52C U53A
G25C C27A A28G A40U C149A
A26C A91G A121C U139C
A26C C75A U82A C95A U102C G143C
A24U A29G A66C C95G C103A A142G
A24C C32U A49C C85G G86A A91G C123G C132A
A24U A28C G59C G86C A122U G133C
A24C U55G C76A G83U C95U C116A C118G U144A
A26G A28U C108G
A24U A26G C27U A37G A97C C103A A110G G112C
A24G C27G A60U A89G C96A
G25U C85G A119U
G25A G48U U61G C96A A97G C132G
A24G G74C U82G G84U C108G C123U
A26G C27U U53A A64U U77G A121G A122G A137G
A24U G50A C108G C125A G141C
G25U A30G A47G C51U G80C A110C
A24U A52C A64C G70A C85U U111C
G25A G81A G92U C103G
A26G A60G C69U C93G
A24U G34A C93G U102G
A24C C35A A37C U56A G88U
A24C G46A G94U C95A A115C
A24C G67A G81C G88A
A26C C32U C85G C93G U134G
A24G C32A G62A
A24G A52C C85U C96U C105U A120U G136A
A24G A60C U78G G83A U90A
G25C A40U U55G C75A C85U C93G U134A A142U
G25U G88U
A24C U56A G124C
A24C G34C G50C U134A
A24U U44A G70A G74C C93G
A24C U55A C57U G58U A66G G68C C85A C149G
A24G A119G A121G A122U C129G
A24U C69A A120G C131G
A24C G34A A60G C85G G136A
A24C C27G U33G C38U A47U U82A G128U
A24G C43U C57U G83A
A26C C57A G68C U134A
G25U A39G A40U G50C A122U A137G G140C
G25C C85G C103U
A26C C38U A52G C54A G86C
G25U G86U A150C
A26C G71A C72G C99U C105G A120G G143A
G25A A41U C93U C95U A98C
G25C C54A U78G C95U
A26C U61A A64G U78A A120U
A24C A30U C43A C57U C87G
A24G U56G U61A U78G C85U G92U G140A
G25A G42A G83U
G25U C54U G58C C76A G84C C105G
A24C G58A G59A G62A G84C C87A G143A
A26C A29U C36A G42A U61A G70A A73C
A24U A52G C69G G70C G88A
A24G A37C C54U G59U U134C A142U A150C
A26C U31A A49G A52C A91C G143C C149A A150U
A26G A41U C43G G50U C54U
A24U A26U A40C U44C
A26C C76G G88U C132G
G25U C105G G117A A138G
A24C G48A G83A
A26C A29G A41C A47G C57A A89U A91G C105A C108G
A24U U45G G74U G94C U102C G133U
A24G G48U U56A C132U
A24U U31C G59C A66G A91U C114U
G25A A39G U45A G71A C93U C95G A142C
G25C A52C G88C A113U
A26G C43A C69U A106U C125G G126C U139C
A24U A28U
A26C C96U A98C A107G
A24C C93U C114U A119G
A24G A41C G65U C72U C96U C105A C129G
A24U G88A C95A A110G
A24C A41U G86C C87G G88A A150C

Polymerase ribozyme fitness (log ratio), -3.64:
G25U G84U

Polymerase ribozyme fitness (log ratio), -4.07:
A24U G34A G92C A137G

Polymerase ribozyme fitness (log ratio), -0.48:
A24U C87U

Polymerase ribozyme fitness (log ratio), -3.94:
A24U A30C G140A

Polymerase ribozyme fitness (log ratio), -3.62:
A24C U31A A52G

Polymerase ribozyme fitness (log ratio), -2.11:
A26G
